Laboratory results: PubChem BioAssay AID463173 (ICCB-Longwood Screening Facility, Harvard Medical School, 2010)
About 1,700 (3.3%) of roughly 52,000 compounds were called active. No stated cut-off is given here; in the data, active means survival mostly below about 52% (no sharp cut-off); inactive means mostly above about 56%. The list shows a part of the results.

These compounds were tested on Wild type (assay: S. aureus survival, RN4220 and DeltatarO strains – OD600, teichoic acid synthesis inhibitors, primary screen (AID 463173)). Conditions: S. aureus RN4220 wild type/DeltatarO growth, OD600, 18 h, active compounds read low, screened at 18.75 µg/mL (by protocol).
For `Cc1ccc2nc(-c3ccccn3)c(Nc3ccc(F)cc3)n2c1`, the survival was active: 16%. For `CN1CCN(CCCNC(=O)c2cnn(-c3ccccc3)c2C2CCN(C(=O)OC(C)(C)C)CC2)CC1`, the survival was inactive: 123%. For `CC1=C(C(=O)Nc2ccc(Cl)cc2)C(C(C)C)n2nc(SCc3cccc(C)c3)nc2N1` (stereo not given), the survival was inactive: 92%. With `CC(C)(C)C1CCc2onc(C(=O)Nc3sc4c(c3C(N)=O)CCCC4)c2C1` (stereo not given) the survival was inactive: 68%. With `NC(=O)c1cc(S(=O)(=O)NCC2CCC(C(=O)Nc3cccc(Cl)c3)CC2)cs1` (stereo not given) the survival was inactive: 71%. In the case of `Cc1c(Cl)cccc1NC(=O)CCS(=O)(=O)c1ccc(Br)s1`, the survival is reported as inactive: 90%. `CCCc1nnc(NC(=O)c2nc(S(=O)(=O)Cc3ccc(C)cc3)ncc2Cl)s1` was tested, and the survival was inactive: 47%. `O=C(c1ccc2c(Cl)c3c(nc2c1)CCCC3)N1CCN(c2ccccc2)CC1` was tested, and the survival was active: 0%. For `Cc1c2cnn(-c3ccccc3)c(=O)c2c(C)n1CCCC(=O)Nc1ccc(F)cc1F`, the survival was inactive: 77%. For `Cc1ccc(NC(=O)CSc2nc3ccccc3c3nc(CCn4c(C)nc5ccccc54)nn23)cc1F`, the survival was inactive: 68%. `CCOc1ccccc1NS(=O)(=O)c1c(-c2ccc(C)cc2)csc1C(=O)OC` was tested, and the survival was inactive: 87%. `Cc1ccc2c(c1)nnn2C1CCN(C(=O)c2ccccc2)CC1` was tested, and the survival was inactive: 107%. For `CCOC(=O)c1cc(-c2ccccc2)n(CC(=O)NCc2ccccc2OC)c1C`, the survival was inactive: 78%. `Cc1ccc(C)c(NC(=O)CCNS(=O)(=O)c2ccc3c(c2)CCCC(=O)N3)c1` was tested, and the survival was active: -6%. `CN(C(=O)CSc1nnc2[nH]c(=O)cc(-c3ccccc3)n12)c1ccccc1` was tested, and the survival was inactive: 136%. In the case of `COCCNC(=O)c1ccc2c(c1)N(Cc1cccc(Cl)c1)C(=O)c1ccccc1S2=O` (stereo not given), the survival is reported as inactive: 69%. In the case of `O=c1cc(O)c2ccccc2[nH]1`, the survival is reported as inactive: 135%. In the case of `Cn1c(=O)n(C)c2cc(S(=O)(=O)Nc3ccccc3C(=O)O)ccc21`, the survival is reported as inactive: 79%. For `Cc1ccc(NCC(=O)N=Nc2c(O)[nH]c3ccccc23)cc1`, the survival was inactive: 114%. In the case of `Fc1ccc(CNc2ncnc3c2c(-c2ccccc2)cn3-c2ccccc2)cc1`, the survival is reported as inactive: 136%. In the case of `CC1CC(C)CN(CCC(=O)Nc2ccccc2F)C1` (stereo not given), the survival is reported as inactive: 108%. In the case of `Cc1ccc(C)c(N2CCN(C(=O)CN3C(=O)CSc4c3c(C)nn4-c3ccccc3)CC2)c1`, the survival is reported as inactive: 69%. For `O=C(Nc1ccc(F)c(F)c1)C1CCCN(S(=O)(=O)c2cccc3nonc23)C1` (stereo not given), the survival was inactive: 138%. In the case of `CC1(C)Cc2c(ccc3ccccc23)C(=O)N1`, the survival is reported as inactive: 113%. For `O=C(NCn1nc(-c2ccccc2)nc1-c1ccccc1)c1cccnc1`, the survival was inactive: 109%. For `Cc1cc2cc3c(cc2nc1SCCN1CCCC1)OCCO3`, the survival was inactive: 112%. With `Cc1cc(C)c2c(=O)cc(CSCC(=O)Nc3nnc(C)s3)[nH]c2c1` the survival was inactive: 138%. In the case of `COc1ccc(N(C)C(=O)NCc2noc3ccc(C)cc23)c(OC)c1`, the survival is reported as inactive: 90%. `CCCNC(=O)Nc1cc(C(=O)NCc2cccc(OCC)c2)ccc1N1CCCC1` was tested, and the survival was inactive: 60%. With `CC(C)(C)C(=O)NC1CCN(CC(=O)Nc2ccccc2)CC1` the survival was inactive: 103%. For `Cc1cccc(NC(=O)C2CCCN(S(=O)(=O)c3c(C)noc3/C=C/N(C)C)C2)c1C` (stereo not given), the survival was inactive: 71%. For `CC(C)(C)C1CCc2nc(NC(=O)Cc3ccc(Cl)cc3)sc2C1` (stereo not given), the survival was inactive: 60%. With `CCC(Sc1nncn2c1cc1sccc12)C(=O)Nc1cccc(OC)c1` (stereo not given) the survival was inactive: 74%. For `COc1ccc(C(=O)CCC(=O)Nc2ccccc2C)cc1`, the survival was inactive: 124%. In the case of `COc1ccccc1NC(=O)CSCc1cc(=O)c2c(C)cc(C)cc2[nH]1`, the survival is reported as inactive: 99%. For `Cc1ccc(CN2CCN(C3CCN(C(=O)OC(C)(C)C)CC3)C(=O)C2=O)cc1`, the survival was inactive: 124%. With `CC(C)(C)c1ccc(C(=O)Nc2ccccc2C(=O)OCc2cc(=O)n3ccsc3n2)cc1` the survival was inactive: 80%. For `CCC(=O)N1CCc2cc(Br)cc(S(=O)(=O)CCC(=O)Nc3ccccc3C)c21`, the survival was inactive: 74%. `Cc1cc2nc3c(=O)n(C)c(=O)n(C)c3nc2cc1N=CN(C)C` was tested, and the survival was inactive: 77%. For `CCOC(=O)CC(NC(=O)Cn1nnc(-c2ccccc2C)n1)c1ccc(OC)cc1` (stereo not given), the survival was inactive: 75%. With `COc1ccc(-c2nc(SCC(=O)NCCCc3ccccc3)n[nH]2)cc1` the survival was inactive: 69%. With `O=C(CSc1ncn[nH]1)c1ccc(Cl)cc1` the survival was inactive: 102%. `COc1ccc(NC(=O)CCc2c(C)nn(-c3ccc(N4CCOCC4)nn3)c2C)cc1Cl` was tested, and the survival was inactive: 71%. In the case of `CCN(CC)CCCNC(=O)c1oc2c(c1C)-c1nn(Cc3ccc(Cl)cc3)cc1CC2`, the survival is reported as inactive: 95%. `Cc1ccc2occ(CC(=O)Nc3ccc(S(N)(=O)=O)cc3)c2c1` was tested, and the survival was inactive: 132%. With `COc1ccc(NC(=O)Cn2c(C)c3cnn(-c4ccccc4)c(=O)c3c2C)c(OC)c1` the survival was inactive: 86%. For `Cc1cc(C)n(C(C)CC(=O)O)n1` (stereo not given), the survival was inactive: 103%. For `Cc1cccc(-c2noc(C3CC(=O)N(c4ccc5c(c4)OCCO5)C3)n2)c1` (stereo not given), the survival was inactive: 79%. For `Cc1ccc(N(CC(=O)NC(C)c2ccccc2)S(=O)(=O)c2c(C)noc2C)cc1` (stereo not given), the survival was inactive: 98%. For `CCCCc1noc2c1/C(=N\O)CC(c1ccccc1)C2` (stereo not given), the survival was inactive: 108%. `CN1CCN(C(=O)/C=C\C(=O)O)CC1` was tested, and the survival was inactive: 122%. With `Cc1cc(OCC(=O)Nc2sc3c(c2C(N)=O)CCCC3)ccc1C(C)C` the survival was inactive: 79%. With `CCOc1ccc(C2c3c(-c4ccccc4O)n[nH]c3C(=O)N2Cc2ccncc2)cc1` (stereo not given) the survival was inactive: 83%. With `CCc1ccc(C(=O)c2cn(CC(=O)Nc3ccc(F)cc3)c3cc4c(cc3c2=O)OCO4)cc1` the survival was inactive: 137%. For `FC(F)(F)c1cc(-c2ccc3c(c2)OCO3)nc(=S)[nH]1`, the survival was inactive: 109%. For `COc1ccccc1-c1noc(-c2ccc(N3CCC(C)CC3)c([N+](=O)[O-])c2)n1`, the survival was inactive: 108%. For `COc1cc(C(=O)Nc2cc3c(cc2C)n(C)c(=O)c(=O)n3C)cc(OC)c1OC`, the survival was inactive: 83%. For `CC1Cc2ccccc2N1C(=O)CSc1nnc2c(n1)[nH]c1ccccc12` (stereo not given), the survival was inactive: 112%. With `Cc1ccc(NC(=O)c2sc3nc(-c4cc5ccccc5oc4=O)[nH]c(=O)c3c2C)c(C)c1` the survival was inactive: 84%. With `CCC(=O)N1CCc2cc(S(=O)(=O)NC(Cc3ccccc3)C(=O)Nc3ccc(C)cc3)ccc21` (stereo not given) the survival was inactive: 74%. For `O=C(CC1Sc2ccc(C(F)(F)F)cc2NC1=O)Nc1ccc(Cl)c(C(F)(F)F)c1` (stereo not given), the survival was inactive: 58%. With `CCN1C(=O)c2ccccc2Sc2ccc(NC(C)=O)cc21` the survival was inactive: 112%. For `COc1cc(C(=O)Nc2cc(C)ccc2OCc2cc(=O)n3c(C)csc3n2)cc(OC)c1OC`, the survival was inactive: 49%. For `CCCc1cc(=O)[nH]c(Nc2cccc(Cl)c2Cl)n1`, the survival was inactive: 79%. In the case of `CCOc1ccc(-n2c(SCc3ccc(C(=O)OC)o3)nc3c([nH]c4ccccc43)c2=O)cc1`, the survival is reported as inactive: 82%. In the case of `CCOc1ccc(-c2cc(OC(=O)c3ccc(F)cc3)c3c(C)oc(C)c3c(=O)c2)cc1`, the survival is reported as inactive: 67%. In the case of `CCCC(C(=O)NC1CCCC1)N(Cc1ccccc1)C(=O)Cn1nnc(-c2ccc(C)o2)n1` (stereo not given), the survival is reported as inactive: 119%. In the case of `COc1ccc(CCNC(=O)c2cc3c(-c4ccccc4F)nn(C)c3s2)c(OC)c1`, the survival is reported as inactive: 82%. For `CCOC(=O)C1CCCN(S(=O)(=O)c2ccc3c(c2)CCCN3C(C)=O)C1` (stereo not given), the survival was inactive: 66%. `COc1ccc(NC(=O)c2cc3c(s2)-c2c(C)cccc2OC3)c(OC)c1` was tested, and the survival was inactive: 78%. With `O=C(Nc1ccc(Br)cc1F)c1cc(S(=O)(=O)NCc2ccc(F)cc2)ccc1F` the survival was inactive: 67%. For `C=C(C)Cn1c(=O)c2c(nc3n2CCN3c2ccc(CC)cc2)n(C)c1=O`, the survival was inactive: 114%. For `CCCCNc1nc(Oc2ccc(=O)[nH]n2)nc(N(C)C)n1`, the survival was inactive: 84%. `CCc1nn(CC(=O)NCCCN(CC)CC)c(=O)c2cc3sc(C)cc3n12` was tested, and the survival was inactive: 95%. In the case of `CSc1ncc(C(=O)Nc2ccccc2C(=O)c2ccccc2)c(C(F)(F)F)n1`, the survival is reported as inactive: 88%. In the case of `Fc1ccc(-n2cc(-c3ccccc3)c3c(NC4CCCCC4)ncnc32)cc1`, the survival is reported as inactive: 94%. `CCOC(=O)c1cccc(NC(=O)c2cc3c(=O)n(Cc4ccccc4)ccc3nc2C)c1` was tested, and the survival was inactive: 102%. In the case of `O=C(NCCN1CCCCC1)c1ccc(/C=N/O)nc1`, the survival is reported as inactive: 98%. `COc1cccc(-n2c(=O)c3c(C)c(C(=O)N(C)C)sc3n(Cc3ccc(F)cc3Cl)c2=O)c1` was tested, and the survival was inactive: 83%. In the case of `CCOc1cc(C2C(C(=O)OC)=C(C)NC3=C2C(=O)c2ccccc23)cc(Cl)c1O` (stereo not given), the survival is reported as inactive: 71%. With `Cc1ccc(-n2ncc3c(NCCCN4CCOCC4)ncnc32)cc1` the survival was inactive: 78%. For `O=C(CCC1N=C2c3ccccc3N=C(SCc3ccccc3F)N2C1=O)NC1CCCCC1` (stereo not given), the survival was inactive: 78%. For `CCn1c2ccccc2c2nnc(N3CCN(c4cc(C)ccc4C)CC3)nc21`, the survival was inactive: 87%. In the case of `Fc1ccc(-c2nc(Nc3cccc(Cl)c3)nc3c2COc2ccccc2-3)cc1`, the survival is reported as inactive: 80%. `COc1ccc(NC(=O)CN(Cc2ccccc2)S(=O)(=O)c2ccc(C)cc2)cc1Cl` was tested, and the survival was inactive: 123%. With `COc1ccc(N2CCN(S(=O)(=O)c3ccc4c(c3)CC(C)N4C(C)=O)CC2)cc1` (stereo not given) the survival was inactive: 55%. With `CCOc1ccccc1NC(=O)c1cc2c(Cl)nc3ccccc3c2s1` the survival was inactive: 70%. With `COc1ccc(NC(=O)C2Cc3ccccc3N2C(=O)c2ccccc2)c(OC)c1` (stereo not given) the survival was inactive: 74%. In the case of `CCCCCCSc1n[nH]c(=O)[nH]c1=O`, the survival is reported as inactive: 107%. With `CCN(CCCNC(=O)c1c(C)oc2ncn(CC(C)C)c(=O)c12)Cc1ccccc1` the survival was inactive: 59%.
